# The antibiotic and cytotoxicity screens of Wong et al. (2023)
# The list shows a part of the results.
# Legend:
# HSkMC = human skeletal muscle cells; assay: cytotoxicity call (relative viability < 0.9); settings: 10 µM
# HepG2 = assay: cytotoxicity call (relative viability < 0.9); settings: 10 µM
# S. aureus RN4220 = assay: growth inhibition call (relative growth <= 0.2); settings: 50 µM
Structure (SMILES),cytotoxicity call (HSkMC),cytotoxicity call (HepG2),growth inhibition call (S. aureus RN4220)
COc1ccc(NC(=O)Nc2ccc3c(c2)CC(=O)N([C@H](C)CO)C[C@H](C)[C@H](CN(C)CC2CCCCC2)O3)cc1,inactive,inactive,inactive
C[C@@H]1CCCCO[C@H](CN(C)C(=O)CCC(F)(F)F)[C@H](C)CN([C@@H](C)CO)C(=O)c2cc(NS(=O)(=O)c3ccc(F)cc3)ccc2O1,inactive,inactive,inactive
C[C@H](CO)N1C[C@H](C)[C@H](CN(C)Cc2ccc(Cl)c(Cl)c2)OCCCC[C@H](C)Oc2ccc(NC(=O)Nc3ccc(C(F)(F)F)cc3)cc2C1=O,inactive,active,inactive
COc1cc(CN(CCc2ccccn2)C(=O)CCCCc2ccccc2)ccc1OCc1ccccc1,inactive,inactive,inactive
N[C@H]1CCS(=O)(=O)C1,inactive,inactive,inactive
COc1ccc(NC(=O)Nc2ccc3c(c2)C(=O)N([C@@H](C)CO)C[C@H](C)[C@H](CN(C)Cc2ccccc2)OCCCC[C@@H](C)O3)cc1,inactive,inactive,inactive
COCCNC(=O)C[C@H]1C[C@@H]2c3cc(NS(C)(=O)=O)ccc3O[C@@H]2[C@H](CO)O1,inactive,inactive,inactive
Cc1ccc(S(=O)(=O)Nc2ccc3c(c2)C(=O)N([C@@H](C)CO)C[C@@H](C)[C@H](CN(C)S(=O)(=O)c2cn(C)cn2)O3)cc1,inactive,inactive,inactive
COc1cccc(NC(=O)C[C@@H]2CC[C@H]3[C@@H](COc4ccc(NC(=O)C5CCOCC5)cc4C(=O)N3C)O2)c1,inactive,inactive,inactive
C[C@@H]1CCCCO[C@@H](CN(C)C(=O)Nc2cccc3ccccc23)[C@H](C)CN([C@H](C)CO)C(=O)c2cc(NC(=O)Cc3ccccc3)ccc2O1,inactive,inactive,inactive
C[C@@H]1CN([C@@H](C)CO)C(=O)Cc2cc(NS(C)(=O)=O)ccc2O[C@H]1CN(C)C(=O)Nc1ccccc1,inactive,inactive,inactive
C[C@@H]1CN([C@H](C)CO)C(=O)c2cc(NC(=O)CCC(F)(F)F)ccc2O[C@@H](C)CCCCO[C@H]1CN(C)C(=O)Nc1ccc(F)cc1,inactive,inactive,inactive
COc1ccccc1C#Cc1cnc2c(c1)C(=O)N([C@@H](C)CO)C[C@@H](C)[C@@H](CN(C)C(=O)CN(C)C)O2,inactive,inactive,inactive
COC(=O)C[C@@H]1CC[C@@H]2[C@H](COC[C@@H](O)CN2S(=O)(=O)c2ccccc2C)O1,inactive,inactive,inactive
C[C@H]1CCCCO[C@H](CN(C)C(=O)c2ccncc2)[C@@H](C)CN([C@@H](C)CO)C(=O)c2cc(NS(=O)(=O)c3cn(C)cn3)ccc2O1,inactive,inactive,inactive
CCNC(=O)C[C@H]1CC[C@H]2[C@H](COc3ccc(NS(=O)(=O)c4ccccc4C)cc3C(=O)N2C)O1,inactive,inactive,inactive
O=C(O)[C@@H]1C[C@H](C(F)(F)F)CN1,inactive,inactive,inactive
Cn1c(=O)[nH]c2nc[nH]c2c1=O,inactive,inactive,inactive
O=S(=O)(NCC[C@H]1CC[C@@H](NS(=O)(=O)c2ccccc2Cl)[C@H](CO)O1)c1ccc(F)cc1,inactive,inactive,inactive
C[C@@H]1CCCCO[C@H](CN(C)C(=O)Nc2cccc3ccccc23)[C@@H](C)CN([C@H](C)CO)C(=O)c2cc(NC(=O)c3ccncc3)ccc2O1,inactive,inactive,inactive
Cc1noc(C)c1NC(=O)N(C)C[C@H]1Oc2ccc(NS(=O)(=O)c3cn(C)cn3)cc2CC(=O)N([C@H](C)CO)C[C@@H]1C,inactive,inactive,inactive
NC(=O)c1ccco1,inactive,inactive,inactive
C[C@@H]1CN([C@H](C)CO)C(=O)c2c(c3ccccc3n2C)-c2ccccc2CO[C@@H]1CN(C)Cc1ccc(-c2ccccc2)cc1,inactive,inactive,inactive
Cn1[nH]c(=O)cc1C(F)(F)F,inactive,inactive,inactive
COc1ccc(S(=O)(=O)Nc2cccc3c2O[C@H](CN(C)S(=O)(=O)c2ccc(C)cc2)[C@H](C)CN([C@@H](C)CO)C3=O)cc1,inactive,inactive,inactive
Cc1ccc(S(=O)(=O)N(C)C[C@H]2Oc3c(NC(=O)c4ccncc4)cccc3C(=O)N([C@@H](C)CO)C[C@H]2C)cc1,inactive,inactive,inactive
COc1ccc(CN(C)C[C@H]2Oc3ccc(NC(=O)C4CC4)cc3CC(=O)N([C@@H](C)CO)C[C@H]2C)cc1,inactive,inactive,inactive
C[C@@H]1CN([C@@H](C)CO)C(=O)Cc2cc(NC(=O)C3CC3)ccc2O[C@H]1CN(C)S(=O)(=O)c1cn(C)cn1,inactive,inactive,inactive
